Measurements from patent publication US8889876B2, “Histone deacetylase inhibitors and uses thereof” (Jiangsu Hengyi Pharmaceutical Co., Ltd., priority 2008, dated 2014).
At least one compound was matched to its structure with a doubt left.

Key:
histone deacetylase [1] = assay: in vitro inhibition of histone deacetylase by HDAC inhibitor screening kit (Biovision K340-100); format: biochemical
Procedure: An assay for determining the in vitro inhibition activity of the compound on histone deacetylase is conducted according to the specification of HDAC inhibitor screeing kid (Biovision Company/Catalog #K340-100). […]

histone deacetylase [2] = assay: in vitro inhibition activity on histone deacetylase (rat liver homogenate, MAL fluorescent substrate); format: biochemical, rats; settings: n = 4, 37° C., 16 hours
Procedure: A 96-well plate (black) for determining […] is made by Costar Company of U.S. The histone deacetylase is obtained by homogenization of liver of rats. The histone deacetylase reacts with small molecular fluorescent substrate MAL such that the substrate MAL is deacetylated to become ML.
The compound to be detected is dissolved with 200 μL of DMSO. The stock solution of the compound to be detected is diluted with PBS to a concentration of the working solution. The histone deacetylase, the MAL fluorescent substrate and the compound to be detected are mixed in a water bath at 37° C. and reacted 16 hours. The final concentration of the compound to be detected is: MS275 and its similar compound: 10, 100 μmol/.
The reaction solution is extracted with ethyl acetate. The extract is pumped in vacuum and thereto added 110 μL of methanol (40%). Taking 50 μL/well to a 96-well plate and making a fluorescent detection at 325/390 nm.
The negative control wherein histone deacetylase is not added to the reaction is 100% inhibition. The control that only contains histone deacetylase without any inhibitor is the background (0% inhibition). The inhibition rate of the sample to be detected=(the detected fluorescent value−the background)/(the fluorescent value of the negative control−background)×100%
The inhibition rate and the standard deviation in the results are the average inhibition percentage and the standard deviation of each parallel well in each dosage group.

Compound	Inhibition rate(%) (histone deacetylase [1]; 3.91 μM)	Inhibition rate(%) (histone deacetylase [1]; 62.5 μM)	Inhibition rate(%) (histone deacetylase [1]; 2 mM)	inhibition rate % average number (histone deacetylase [2]; dosage 10 μmol/L)	inhibition rate % average number (histone deacetylase [2]; dosage 100 μmol/L)
Nc1ncccc1NC(=O)c1ccc(CNC(=O)OCc2ccc(F)cc2)cc1 [V-19, N-(2-amino-3-pyridyl)-4-[(4-fluorobenzyloxyacyl)aminomethyl]benzamide]	1.0%	20.1%	50.0%		
COc1ccc(COC(=O)NCc2ccc(C(=O)Nc3ccncc3N)cc2)cc1 [V-12]	8.9%	41.1%	46.2%		
Nc1ncccc1NC(=O)c1ccc(CNC(=O)OCc2ccc([N+](=O)[O-])cc2)cc1 [V-15, N-(2-amino-3-pyridyl)-4-[(4-nitrobenzyloxyacyl)aminomethyl]benzamide]	4.1%	11.1%	−12.5%		
Cc1ccc(/C=C/C(=O)NCc2ccc(C(=O)Nc3cccnc3N)cc2)cc1 [V-27, N-(2-amino-3-pyridyl)-4-[(4-methylcinnamoyl)aminomethyl]benzamide]	19.7%	59.7%	66.7%		
COc1ccc(CCC(=O)NCc2ccc(C(=O)Nc3cccnc3N)cc2)cc1 [V-52, N-(2-amino-3-pyridyl)-4-[3-(4-methoxyphenyl)propionylaminomethyl]benzamide]	3.5%	17.3%	69.8%		
Nc1ncccc1NC(=O)c1ccc(CNC(=O)/C=C/c2ccc([N+](=O)[O-])cc2)cc1 [V-36, N-(2-amino-3-pyridyl)-4-[(4-nitrocinnamoyl)aminomethyl]benzamide]	17.5%	37.3%	40.7%	3.894%	20.670%
Nc1ncccc1NC(=O)c1ccc(CNC(=O)CCc2ccccc2)cc1 [V-48, N-(2-amino-3-pyridyl)-4-[(3-phenylpropionyl)aminomethyl]benzamide]	13.2%	32.6%	61.9%		
COc1cc(/C=C/C(=O)NCc2ccc(C(=O)Nc3cccnc3N)cc2)cc(OC)c1OC [V-34, N-(2-amino-3-pyridyl)-4-[(3,4,5-trimethoxycinnamoyl)aminomethyl]benzamide]	10.1%	39.1%	79.2%	0.148%	3.772%
Nc1ncccc1NC(=O)c1ccc(CNC(=O)CCc2ccc(F)cc2)cc1 [V-60, N-(2-amino-3-pyridyl)-4-[3-(4-fluorophenyl)propionylaminomethyl]benzamide]	3.2%	16.8%	38.8%		
Nc1ncccc1NC(=O)c1ccc(CNC(=O)/C=C/c2ccccc2)cc1 [V-25, N-(2-amino-3-pyridyl)-4-(cinnamoylaminomethyl)benzamide]	13.7%	51.5%	61.4%		
Nc1cnccc1NC(=O)c1ccc(CNC(=O)OCc2ccc(F)cc2)cc1 [V-20]	16.8%	47.1%	64.8%		
Cc1ccc(COC(=O)NCc2ccc(C(=O)Nc3ccncc3N)cc2)cc1 [V-10]	14.5%	38.0%	47.1%		
Nc1ncccc1NC(=O)c1ccc(CNC(=O)/C=C/c2ccc(F)cc2)cc1 [V-40, N-(2-amino-3-pyridyl)-4-[(4-fluorocinnamoyl)aminomethyl]benzamide]	20.5%	55.2%	72.8%		
Cc1ccc(CCC(=O)NCc2ccc(C(=O)Nc3cccnc3N)cc2)cc1 [V-50, N-(2-amino-3-pyridyl)-4-[3-(4-methylphenyl)propionylaminomethyl]benzamide]	8.6%	31.0%	37.8%		
COc1ccc(/C=C/C(=O)NCc2ccc(C(=O)Nc3cccnc3N)cc2)cc1 [V-29, N-(2-amino-3-pyridyl)-4-[(4-methoxycinnamoyl)aminomethyl]benzamide]	22.7%	57.8%	72.3%		
